Measured values from the supplement of paper PMC3724861.
Some of the results follow.

tested on: T1, Caupolican (Caup) homeodomain DNA-binding domain; experiment: PBM E-score (8-mer, recovered from the published 9-mer minima) (E-score (dimensionless, -0.5 to 0.5)); Drosophila protein; higher = stronger relative binding preference, active = 0.31 or more
T1 sequence: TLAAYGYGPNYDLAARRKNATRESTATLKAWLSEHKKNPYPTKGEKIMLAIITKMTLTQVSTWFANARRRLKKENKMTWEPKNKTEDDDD
Procedure: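 Protein binding microarray (PBM): in vitro transcribed/translated Caupolican (Caup) homeodomain DNA-binding domain (residues 214-303) applied at 100 nM to a universal 8-mer PBM array (Agilent AMADID 015681). The 8-mer enrichment score (E-score, range -0.5 to 0.5) was computed, and each 9-mer score is the minimum E-score of its two constituent 8-mers. The E-score is the same for a 9-mer and its reverse complement; 0.31 is the stated binding threshold.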

| Sequence | PBM E-score |
| --- | --- |
| CCGGAATA | inactive: -0.0473 |
| GTTAAGCA | inactive: 0.103 |
| GTTAGCTA | inactive: -0.0329 |
| AATGTAAA | active: 0.323 |
| GCGGGGAC | inactive: -0.138 |
| GTGGTTAA | inactive: 0.0838 |
| AGGTATAA | inactive: 0.0486 |
| CGTCGTGC | inactive: 0.0266 |
| TGCCTACA | inactive: 0.104 |
| ACTAGGGG | inactive: -0.223 |
| GCCATACA | inactive: 0.119 |
| GATGATCA | inactive: 0.0545 |
| ACTAATCG | inactive: 0.0239 |
| CGCGCTAG | inactive: -0.142 |
| GAGCACGA | inactive: 0.0517 |
| TACTTCCA | inactive: 0.0598 |
| ATCCACAC | inactive: -0.0296 |
| CGTCGGTC | inactive: -0.111 |
| AAGTGTCG | inactive: 0.116 |
| TAGGTTCA | inactive: -0.0122 |
| CCCCTTGA | inactive: -0.156 |
| ATAGGAGA | inactive: 0.0365 |
| GGCCGTAA | inactive: -0.148 |
| AGCTAGAT | ≥ 0.0524 |
| ATGTGACC | inactive: 0.0381 |

| Sequence | PBM E-score |
| --- | --- |
| ATGAGAGA | inactive: -0.0278 |
| AACCAAGT | inactive: 0.0437 |
| CTGAGTCA | inactive: -0.0457 |
| AGACGATA | inactive: 0.0762 |
| AATGCGGA | inactive: -0.0519 |
| TACCGGTA | ≥ 0.0291 |
| GGGCTGTA | inactive: -0.0303 |
| TCTGCCAA | inactive: -0.0468 |
| GGCCTTAA | inactive: -0.0972 |
| AAGCAGGA | inactive: 0.00695 |
| CCATATGG | inactive: -0.073 |
| CGACTGGA | inactive: -0.158 |
| GGTCCCAA | inactive: -0.114 |
| AAGACTTA | inactive: 0.0824 |
| AACCGAAA | inactive: 0.0343 |
| AGTCTGCC | inactive: -0.152 |
| AGACCTGC | inactive: -0.07 |
| CATACCGA | inactive: 0.0416 |
| CCCCCAGC | inactive: -0.44 |
| AATCATCT | inactive: 0.101 |
| AAGGCCCA | inactive: -0.231 |
| AGATCGTG | inactive: 0.0439 |
| CACGCATG | inactive: 0.0739 |
| CCTGGTCA | inactive: -0.0753 |
| ATATGCTC | inactive: 0.116 |

| Sequence | PBM E-score |
| --- | --- |
| ATACGCAT | inactive: 0.11 |
| TTCTGCAA | inactive: 0.0212 |
| AAGATAAG | inactive: 0.142 |
| ACCTAGTA | inactive: 0.145 |
| ACCTATCA | inactive: 0.0881 |
| CTATACGA | inactive: 0.0334 |
| CACGGCGG | inactive: -0.173 |
| GTCTGTAA | inactive: 0.1 |
| TCACTGGA | inactive: -0.047 |
| GAACGATC | inactive: -0.00792 |
| CTACCCGC | inactive: -0.151 |
| CCTCCCGA | inactive: -0.263 |
| CGCCTCCA | inactive: -0.165 |
| ATCACTGC | inactive: -0.0201 |
| ACAGTTCA | inactive: 0.0978 |
| CATTCTGA | inactive: -0.0227 |
| GGATGGAC | inactive: -0.0198 |
| GCGCTCAA | inactive: -0.132 |
| CACCCTAA | inactive: -0.0584 |
| ACCTACAA | inactive: 0.171 |
| GAAATTCC | inactive: -0.0846 |
| ATGGTAAG | inactive: -0.0526 |
| CTCGACTC | inactive: -0.0783 |
| CCCATTGC | inactive: -0.105 |
| GCGGACGC | inactive: -0.263 |

| Sequence | PBM E-score |
| --- | --- |
| CAAACATC | inactive: 0.23 |
| AAATAGTT | inactive: 0.136 |
| AACGCGCC | inactive: -0.214 |
| TATCAGGA | inactive: 0.0345 |
| ACAGGTAC | inactive: 0.161 |
| CGATGCAC | inactive: -0.015 |
| CAACCGCG | inactive: -0.0698 |
| AACAAGAT | active: 0.334 |
| AGTCCAGG | inactive: -0.0987 |
| GCAGGCAA | inactive: -0.0468 |
| CTATCTAA | inactive: 0.0584 |
| AGGGTTAC | inactive: -0.0616 |
| CGGCCCCG | inactive: -0.323 |
| AAATCAAT | inactive: 0.171 |
| CCTTATTC | inactive: -0.0214 |
| ACACCGCC | inactive: 0.0415 |
| ACAACGTA | inactive: 0.255 |
| AGAACGGG | inactive: -0.126 |
| CTGAAAAA | inactive: -0.0197 |
| CCCGGAGG | inactive: -0.327 |
| CACTCTAG | inactive: -0.093 |
| GATCACAC | inactive: 0.145 |
| AGGGTTTC | inactive: -0.0131 |
| GCTGTCAC | inactive: 0.112 |
| CGGTTCCA | inactive: -0.127 |

| Sequence | PBM E-score |
| --- | --- |
| CTGCCAAC | inactive: -0.0934 |
| ACTTAGGC | inactive: -0.134 |
| ACCCCGTC | inactive: -0.239 |
| TAAATGAA | inactive: 0.139 |
| GCTCTGAC | inactive: -0.121 |
| CCGGAACA | inactive: 0.137 |
| ACCACATG | inactive: 0.212 |
| GGCCCAAC | inactive: -0.161 |
| AAAGTCAA | inactive: 0.0526 |
| ACGGCCAG | inactive: -0.163 |
| AACCATGC | inactive: 0.0352 |
| AGTTAAAC | inactive: 0.122 |
| GTATGGGA | inactive: -0.0439 |
| AATGCGGC | inactive: -0.0861 |
| CGTGATAC | inactive: 0.113 |
| GGATCTCA | inactive: -0.137 |
| GAACCCAA | inactive: -0.0323 |
| ATCAGATG | inactive: 0.131 |
| GCAACTCC | inactive: -0.14 |
| CCTCCCTC | inactive: -0.156 |
| ATTTGACG | inactive: 0.0903 |
| AAACCACG | inactive: -0.0278 |
| CCCGAGAC | inactive: -0.0815 |
| GAAATTGC | inactive: 0.0246 |
| GGTTACAC | inactive: 0.181 |

| Sequence | PBM E-score |
| --- | --- |
| CATATCGC | inactive: 0.0493 |
| GGGGGAAC | inactive: -0.21 |
| ACCTGCAC | inactive: -0.0605 |
| GCCAATCA | inactive: -0.0321 |
| GAGGCAGC | inactive: -0.186 |
| GAGTTGGA | inactive: -0.0666 |
| GACATCCA | inactive: 0.159 |
| GTAGGTCA | inactive: -0.00049 |
| CGGTGGTA | inactive: 0.00903 |
| ACACTCGC | inactive: -0.0592 |
| ACAGAGAC | inactive: 0.096 |
| CGCTAAGC | inactive: -0.0779 |
| AGTCATTA | inactive: 0.0618 |
| AGGACTGA | inactive: 0.0183 |
| CGATAAAG | inactive: 0.00965 |
| CTCCGTAC | inactive: -0.0596 |
| AGTCATGA | inactive: 0.127 |
| GCGACTTA | inactive: -0.0816 |
| ACACGCTA | inactive: 0.282 |
| AATAATAC | inactive: 0.267 |
| CCTGTCTC | inactive: -0.00577 |
| AAGTGCAC | inactive: 0.0771 |
| ACGCCGGG | inactive: -0.228 |
| AGATCATG | inactive: 0.0783 |
| ACCCAGCT | ≥ -0.0926 |

| Sequence | PBM E-score |
| --- | --- |
| AGGTCACC | inactive: -0.159 |
| GACGTAGA | inactive: -0.0704 |
| CAATGTAG | inactive: 0.182 |
| AGCCAGAG | inactive: -0.124 |
| AGGGCATA | inactive: -0.0425 |
| CGTGTTAC | inactive: 0.282 |
| GTGTACAC | active: 0.389 |
| TACAGGCA | inactive: 0.161 |
| ACCGGGGG | inactive: -0.303 |
| GTCCTAAA | inactive: 0.0383 |
| ACGTCGCC | inactive: -0.156 |
| ATTAAATC | inactive: 0.091 |
| ATTGATTA | ≥ 0.2 |
| GTATAATA | inactive: 0.175 |
| GTGAGTAA | inactive: 0.0432 |
| CGTTTTAC | inactive: 0.0444 |
| AGTAGGGC | inactive: -0.0887 |
| CCACCAGG | inactive: -0.225 |
| ACCCTTTG | inactive: -0.118 |
| TAGTTCGA | inactive: 0.0752 |
| CTATAAAC | inactive: 0.158 |
| CTACGCCC | inactive: -0.212 |
| AACGGGAT | inactive: -0.0592 |
| CTTAGGGC | inactive: -0.143 |
| TCCAACGA | ≥ 0.0483 |

| Sequence | PBM E-score |
| --- | --- |
| ACCGAAAC | inactive: -0.0317 |
| CTAGATTA | inactive: 0.145 |
| CAGTACGA | inactive: 0.101 |
| ATGGTAGG | inactive: -0.0515 |
| GCGCGAAC | inactive: -0.0671 |
| AGTGGTAG | inactive: 0.0358 |
| CAAAGTCG | inactive: -0.0445 |
| ATTGTGCC | inactive: -0.0794 |
| ATGAGTTA | inactive: 0.04 |
| AAATTTCC | inactive: 0.00428 |
| AGTAGGAT | inactive: 0.0263 |
| AGCTGCAT | inactive: -0.0587 |
| CACCTACG | inactive: -0.128 |
| ATACTAGA | inactive: 0.213 |
| AACGACTG | inactive: 0.0234 |
| CGCGGGTA | inactive: -0.00391 |
| GTTCCATA | inactive: 0.0906 |
| CAGCAAGG | inactive: -0.0187 |
| GAGGAAGA | inactive: -0.0993 |
| ACAAATGT | active: ≥ 0.311 |
| AGGGATGA | inactive: -0.0456 |
| CAGTGGCA | inactive: -0.12 |
| CAGAATTA | inactive: 0.0504 |
| ACATCTGA | inactive: 0.183 |
| ATATCAAT | inactive: 0.127 |

| Sequence | PBM E-score |
| --- | --- |
| GCGATACA | inactive: 0.217 |
| ATGGCCCC | inactive: -0.175 |
| CGAAGTAA | inactive: -0.00995 |
| CTAGATAA | inactive: 0.0488 |
| ATCCTCTG | inactive: -0.0182 |
| AATTGCAT | inactive: 0.0474 |
| CCGCGCTA | inactive: -0.145 |
| ATACGGCA | inactive: 0.0372 |
| AACACTAG | inactive: 0.17 |
| ACGTGTAT | active: 0.353 |
| CTAACGAC | inactive: 0.0213 |
| GGTTTAGA | inactive: 0.00471 |
| AAGATCCG | inactive: -0.128 |
| ACTGTGCC | inactive: -0.121 |
| CCCTGAGA | inactive: -0.156 |
| CCAACGTA | inactive: 0.0596 |
| ATCCATGC | inactive: -0.0207 |
| GGACAACC | inactive: 0.169 |
| CGAGGCCC | inactive: -0.232 |
| AACCTCCG | inactive: -0.143 |
| TGAAACAA | inactive: 0.188 |
| TACGCAGA | inactive: 0.0132 |
